In the supplement of paper PMC11369174, “Proteome-scale characterisation of motif-based interactome rewiring by disease mutations” (Molecular Systems Biology, 2024):
Changes are numbered by the printed parent chain. Names and notes keep the numbering of the source. The list shows a part of the results. This is a noisy data set.

T1: PTK2_Focal-AT__Q05397_891_1050
T1 chain: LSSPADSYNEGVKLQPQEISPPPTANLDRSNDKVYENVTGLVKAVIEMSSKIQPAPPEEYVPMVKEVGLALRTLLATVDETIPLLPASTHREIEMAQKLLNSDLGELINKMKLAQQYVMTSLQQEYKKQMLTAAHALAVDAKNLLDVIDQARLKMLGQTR

T2: RDX_FERM_1_P35241_5_295
T2 chain: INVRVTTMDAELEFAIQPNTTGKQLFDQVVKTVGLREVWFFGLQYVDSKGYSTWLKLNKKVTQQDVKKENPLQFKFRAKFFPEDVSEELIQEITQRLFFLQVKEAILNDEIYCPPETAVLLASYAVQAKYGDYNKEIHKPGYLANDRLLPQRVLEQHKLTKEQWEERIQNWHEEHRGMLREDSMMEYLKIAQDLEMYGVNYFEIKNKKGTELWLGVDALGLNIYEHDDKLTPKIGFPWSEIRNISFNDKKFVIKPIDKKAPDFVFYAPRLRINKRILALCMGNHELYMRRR

B1: L224P L224P (peptide)
chain: ARDASSSHRGRNVLTAILLLPRELDAEGLEAVQQTVGSRLQ
B2: R355L R355L (peptide)
chain: IDALKGTNDSLMRQMRELEDLFASEASGYQDNIARLEEEIR
B3: L11S L11S (peptide)
chain: MAFYSCCWVLLALTWHTSAYSPDQRAQKKGD
B4: Q1699E Q1699E (peptide)
chain: EIVALVTMTPDQRQDVVRLLELRTAEPEVRAKPYTLEEFSY
B5: R160Q R160Q (peptide)
chain: NQAKEDRIDPLTLKEMLESIQETAEEPLSIQSLRFLQLELS
B6: D389Y D389Y (peptide)
chain: TVAYTIPKKQEDSVTELTVEYSGESLEDLMAKMKNM
B7: D2969N D2969N (peptide)
chain: PSTSSEEEDPLAGISLPEGVNPSFLAALPDDIRREVLQNQL
B8: P2977H P2977H (peptide)
chain: DPLAGISLPEGVDPSFLAALHDDIRREVLQNQLGIRPPTRT
B9: D768Y D768Y (peptide)
chain: KQLVEDLDRIVALTSNQEYLYLSMPLDQYSPSFPDTRSSTC
B10: Q901E Q901E (peptide)
chain: NPVFSMNPFSAKPLYTALPPESAFPPATFMPPVQTSIPGLR
B11: E127K E127K (peptide)
chain: LKQQVSGLEGVQDDLFWLTFKGKPLEDQLPLGEYGLKPLST
B12: R2981H R2981H (peptide)
chain: GISLPEGVDPSFLAALPDDIHREVLQNQLGIRPPTRTAPST
B13: R297K R297K (peptide)
chain: YIHQWEEIFHMTYDLASAVVKIFNLIGMMLLLCHWDGCLQF
B14: P183H P183H (peptide)
chain: SITHYRPVSASRSSLDLSYYHTSSSTSFMSSSSSSSSWLTR
B15: P183T P183T (peptide)
chain: B14 chain with H21T
B16: G579E G579E (peptide)
chain: IDMENMFDLLKEETEVKDLPEAGPLRFQKGRIEFENVHFSY
B17: W218C W218C (peptide)
chain: QQSNPCPETGAAFPSKATFWCVSGLVWRGYRRPLRPKDLWS
B18: E1457K E1457K (peptide)
chain: SNAAAAALDKKQRNFDKILAKWKQKYEESQSELESSQKEAR
B19: S19A S19A (peptide)
chain: MVSKLSQLQTELLAALLESGASKEALIQALGEPGPYLLA
B20: Q2322R Q2322R (peptide)
chain: SGSRDSTPSRPAQQPLSRPIRSPGRNSISPGRNGISPPNKL
B21: R238Q R238Q (peptide)
chain: LPCVRPAPQNPWAQDEWEIPQQSLRLVRKLGSGQFGEVWMG
B22: S190A S190A (peptide)
chain: TSPGSGLILQANFVHSQRREAFLYRSDSDYDLSPKSMSRNS
B23: L16P L16P (peptide)
chain: MGTPWRKRKGIAGPGLPDLSPALVLQPRAQVGTMSP

Biological target: T1, PTK2_Focal-AT__Q05397_891_1050
Experiment: mutation enrichment score (mutant vs wild-type peptide binding to bait); baits are purified protein domains named by gene / domain / UniProt id / residues; peptides come from disordered regions of human proteins; higher = mutation enhances binding relative to wild type
Settings: number of wild-type / mutant comparisons summed (bounds the score): 5; paper call: no_effect; wild-type window: …

Q: For B1, which mutation enrichment score is on record?
A: -4

Q: Which mutation enrichment score does the source give for B2 here?
A: 3

Q: Which mutation enrichment score does the source give for B3 here?
A: 2

Q: B4 was tested. Which mutation enrichment score did it give?
A: 2

Q: Which mutation enrichment score does the source give for B5 here?
A: -2

Q: With B6 as the binder, how does the mutation enrichment score read?
A: 5

biological target: RAN2-B_Ran-BP1-PH-domain__P49792_2924_3050; experiment: as above; settings: number of wild-type / mutant comparisons summed (bounds the score): 6; paper call: diminished; wild-type window: …

Q: B7 was tested. Which mutation enrichment score did it give?
A: -6

Q: Which mutation enrichment score does the source give for B8 here?
A: -6

same assay, conditions: number of wild-type / mutant comparisons summed (bounds the score): 6; paper call: enhanced; wild-type window: …

Q: B9 was tested. Which mutation enrichment score did it give?
A: 6

same assay, conditions: number of wild-type / mutant comparisons summed (bounds the score): 6; paper call: no_effect; wild-type window: …

Q: With B10 as the binder, how does the mutation enrichment score read?
A: 6

Q: How did the mutation enrichment score turn out when B11 was run?
A: -5

same assay, conditions: number of wild-type / mutant comparisons summed (bounds the score): 12; paper call: enhanced; wild-type window: …

Q: How did the mutation enrichment score turn out when B12 was run?
A: 4.7

Biological target: T2, RDX_FERM_1_P35241_5_295
Experiment: as above
Settings: number of wild-type / mutant comparisons summed (bounds the score): 6; paper call: no_effect; wild-type window: …

Q: With B13 as the binder, how does the mutation enrichment score read?
A: -3

Q: How did the mutation enrichment score turn out when B14 was run?
A: -5

Q: With B15 as the binder, how does the mutation enrichment score read?
A: -5

Q: Which mutation enrichment score does the source give for B16 here?
A: 2

biological target: USP7_MATH-TRAF__Q93009_53_206; experiment: as above; settings: number of wild-type / mutant comparisons summed (bounds the score): 5; paper call: no_effect; wild-type window: …
Sequence (chain, as listed by the source): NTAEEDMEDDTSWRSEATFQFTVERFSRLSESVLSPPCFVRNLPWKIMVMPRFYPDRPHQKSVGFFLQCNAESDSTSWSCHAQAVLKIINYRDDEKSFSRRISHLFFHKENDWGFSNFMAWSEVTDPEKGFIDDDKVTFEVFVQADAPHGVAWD

Q: For B14, which mutation enrichment score is on record?
A: 1.5

biological target: REPS1___Q96D71_226_314; experiment: as above; settings: number of wild-type / mutant comparisons summed (bounds the score): 6; paper call: no_effect; wild-type window: …

Q: Which mutation enrichment score does the source give for B17 here?
A: -2

Q: B18 was tested. Which mutation enrichment score did it give?
A: -3

Q: B19 was tested. Which mutation enrichment score did it give?
A: 1

Q: How did the mutation enrichment score turn out when B20 was run?
A: -2

Q: B21 was tested. Which mutation enrichment score did it give?
A: 2.7

Q: With B22 as the binder, how does the mutation enrichment score read?
A: 2

Q: With B23 as the binder, how does the mutation enrichment score read?
A: 4

biological target: RUNX1T1-MYND___Q06455_510_559; experiment: as above; settings: number of wild-type / mutant comparisons summed (bounds the score): 6; paper call: no_effect; wild-type window: …

Q: Which mutation enrichment score does the source give for B19 here?
A: -1
